# Measured values taken from the supplement of paper PMC3334620.
# The full ranking holds about 33,000 sequences; the median of “E-score (-0.5 to 0.5)” is about -0.01, and the highest 2% start at about 0.26. Some of the results follow.
# Target: Ste12 (UniProt P13574)
# Assay: PBM E-score (8-mer binding enrichment) (E-score (-0.5 to 0.5)); higher = stronger / more preferred TF binding; most listed sequences are background and not binding sites
# Settings: protein concentration: 200 nM; construct: GST-DNA-binding domain
# In short: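 Detection of bound protein used fluorescent anti-GST, with scans normalised by masliner. The proteins were GST-tagged yeast transcription factors applied at about 100-200 nM to universal all-10-mer Agilent arrays made double-stranded by primer extension. Each ungapped eight-base word, pooled with its reverse complement, was scored with an E-score from the Universal PBM Analysis Suite.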
row,Sequence,PBM E-score
1,GGGTACCC,-0.219
2,CAAAGCCA,0.00332
3,CCCGGCCG,-0.239
4,GCGTCCTA,0.00273
5,CAGACCCA,0.0324
6,CTGCTAGA,-0.194
7,CGTAAAGA,-0.0705
8,CGGTTGAC,-0.0904
9,AGATTCTG,-0.185
10,GATTGCGA,0.103
11,CATATCAG,0.0421
12,TCAAGCAA,0.119
13,AGCCGACG,-0.0138
14,CTTCGGGA,-0.065
15,CCGCGTGA,-0.0137
16,CCACTCCA,-0.0281
17,CATTGCCA,-0.0301
18,CGAGATCA,-0.0536
19,CGAAAATC,0.0318
20,TATCGTCA,0.0847
21,ACGCGGCT,-0.081
22,AGCTACAT,-0.222
23,ACTTCGTG,0.0745
24,CCATTCTA,-0.0163
25,AGTACCTG,-0.0853

row,Sequence,PBM E-score
1,AGGCTGTC,-0.0443
2,TACGGCAA,0.0168
3,CCAGGGTC,-0.17
4,CGAACGAC,-0.034
5,CCTGACAA,-0.0135
6,GATCCGCA,-0.127
7,CCCGCATC,0.101
8,CCCGTCCA,0.0294
9,AGACCTCG,-0.0758
10,GATAAGTA,0.00593
11,ATTCCAGG,-0.0608
12,AACCCCAA,0.0298
13,ACCTGTAC,-0.0307
14,CCATAGTC,-0.106
15,GAATGGTC,-0.0459
16,ACAATGGT,-0.158
17,AAGCGATT,-0.0133
18,CAGGTACG,-0.0567
19,CGCAATCA,0.0872
20,AAGAAAAT,0.254
21,CTATAAGC,-0.0583
22,GACTACTA,-0.138
23,GAGACATC,-0.0449
24,CATGCGGG,-0.0626
25,CAAGCGTC,-0.128

row,Sequence,PBM E-score
1,AGGCGGGA,0.0721
2,ATGGCTAC,0.0632
3,GCCTGCGC,-0.119
4,ACACCGGA,-0.00681
5,GACGTAAA,-0.00157
6,GATAAGAC,0.0185
7,GTAACCAA,0.0303
8,ACTTTCAA,0.167
9,CAGTGAAC,-0.0119
10,GTCCAATA,-0.143
11,GAAGGGCC,-0.158
12,GAGACGCA,-0.0443
13,CAGGTGTA,0.0993
14,GCGCGGAA,0.224
15,GCTGCGTA,-0.155
16,CATCATAG,0.11
17,CCTACCAC,-0.145
18,ATAGCGGG,0.0949
19,CAGTCGCG,-0.0193
20,GGACACAA,0.146
21,ATCTTGCG,0.0576
22,CACGTTTC,0.285
23,ATCACTGG,0.00928
24,ATGCTCAA,-0.0833
25,GGATGTCA,0.244

row,Sequence,PBM E-score
1,CTCTGCTA,-0.281
2,CCGTGAGA,-0.221
3,ACGCAGTA,-0.142
4,AGCTTGTA,-0.025
5,GCCCTACA,-0.214
6,ACTTAGAC,-0.0823
7,ATAAAGAT,0.182
8,GGAGAGAC,0.0275
9,TATAGTGA,-0.0854
10,TCGTAGCA,0.0284
11,GTGTTAAC,0.0667
12,CGCCCACC,0.139
13,ACTTAAAT,0.138
14,ACTGTAAG,-0.0769
15,TCTAGCAA,0.0544
16,CGTCCTTC,0.0288
17,CGTATAGA,-0.0523
18,AGAAAGGC,-0.155
19,GCATCTAA,0.13
20,CACGGAAC,0.127
21,ACTTAGTC,-0.0559
22,ATTCCGAA,0.109
23,CCCTATCG,-0.24
24,ATGGGAAC,-0.0809
25,AAAAATAG,0.24

row,Sequence,PBM E-score
1,AATGGTAC,-0.039
2,GGTGCTGA,-0.0709
3,AGCCGTCC,-0.0621
4,ACATCCAC,-0.00521
5,AAAGTACA,0.209
6,GAGTGTTA,-0.0961
7,ACTTTGAT,0.11
8,AGTAAGCA,-0.0954
9,CAACCTTC,-0.115
10,GCTTTTCC,-0.0357
11,TCTCGCAA,0.00805
12,GAGCATCA,-0.156
13,TCTGATCA,-0.0592
14,GAGGGCTA,-0.223
15,AGCTCCTA,-0.238
16,CTATGCGC,-0.00749
17,GTCGTAGA,-0.121
18,AGCCCCCT,-0.266
19,CTTGTAGC,-0.0229
20,ACGCGGAC,-0.148
21,GCTGGTAC,-0.178
22,CCACGCCA,-0.018
23,CGGCGCGA,0.189
24,AGCCCACT,-0.0644
25,ACCCGATA,0.13

row,Sequence,PBM E-score
1,CATCCAGA,-0.00655
2,CCACACAA,0.0302
3,CGTGGTGA,-0.226
4,ACTAGCAA,-0.0295
5,CGACGCGA,-0.0351
6,GGCATCCC,-0.173
7,GGCTCAGA,-0.0837
8,ACCGGATG,-0.166
9,AGGATGAT,0.104
10,GGCACTAA,-0.101
11,CCGGGTCG,-0.0265
12,CGGCAAGA,-0.0842
13,ACGGTGCT,-0.0587
14,CACCATCA,0.0196
15,AAGCTGGA,-0.0676
16,AACTGGTG,-0.125
17,GTTTCTCA,0.0531
18,TAGAGGCA,-0.152
19,CAAGCCCA,-0.157
20,CAATCGAA,-0.021
21,GATATAGC,0.0358
22,AAGTCCGA,-0.0579
23,AGATACGG,0.11
24,TAAAGGGA,-0.051
25,CTGCGATA,-0.158

row,Sequence,PBM E-score
1,CCTTTTAA,0.0649
2,AAGAGCCA,0.0885
3,GACACATC,0.0098
4,CCAGGAGC,-0.093
5,GACACTCC,0.0388
6,GTATTGAC,-0.0665
7,ACGACCGA,-0.00584
8,GGGGAAAC,0.159
9,ATCCAATG,-0.165
10,CTCATGGA,-0.0927
11,GGGATGTA,-0.0856
12,AAGAGACC,-0.125
13,CACTGATG,-0.124
14,GCGCCGTA,-0.0921
15,GACGGCCA,-0.153
16,ATAAAGAG,-0.0595
17,AAACGTGT,0.123
18,CAAAGGAG,-0.0623
19,CATGACGA,0.076
20,TCATGAGA,0.0861
21,AATGGTCG,0.0135
22,AAGGGGGT,-0.235
